The source of these data is paper PMC10797426.

Sequences of proteins named here, by UniProt entry; tags and fusion partners are left off. A change or cut given only in a name is not applied to a line headed by its entry. A line that says so, or that is headed by a name, gives the form on record, which may keep a tag or linker.
UniProt Q03135: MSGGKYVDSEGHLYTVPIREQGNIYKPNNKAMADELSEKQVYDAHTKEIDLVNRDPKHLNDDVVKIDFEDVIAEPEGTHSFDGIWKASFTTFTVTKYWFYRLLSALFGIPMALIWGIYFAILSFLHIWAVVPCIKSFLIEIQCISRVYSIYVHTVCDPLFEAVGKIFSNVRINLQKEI
HA-CAV1 with KIFSN motif deletion (Del) (Q03135, form named): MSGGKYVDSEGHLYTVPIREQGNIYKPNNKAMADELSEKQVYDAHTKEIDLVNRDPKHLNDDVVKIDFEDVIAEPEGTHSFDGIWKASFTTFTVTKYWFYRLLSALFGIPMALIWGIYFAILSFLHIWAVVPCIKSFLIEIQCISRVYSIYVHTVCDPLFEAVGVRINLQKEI
UniProt P35222: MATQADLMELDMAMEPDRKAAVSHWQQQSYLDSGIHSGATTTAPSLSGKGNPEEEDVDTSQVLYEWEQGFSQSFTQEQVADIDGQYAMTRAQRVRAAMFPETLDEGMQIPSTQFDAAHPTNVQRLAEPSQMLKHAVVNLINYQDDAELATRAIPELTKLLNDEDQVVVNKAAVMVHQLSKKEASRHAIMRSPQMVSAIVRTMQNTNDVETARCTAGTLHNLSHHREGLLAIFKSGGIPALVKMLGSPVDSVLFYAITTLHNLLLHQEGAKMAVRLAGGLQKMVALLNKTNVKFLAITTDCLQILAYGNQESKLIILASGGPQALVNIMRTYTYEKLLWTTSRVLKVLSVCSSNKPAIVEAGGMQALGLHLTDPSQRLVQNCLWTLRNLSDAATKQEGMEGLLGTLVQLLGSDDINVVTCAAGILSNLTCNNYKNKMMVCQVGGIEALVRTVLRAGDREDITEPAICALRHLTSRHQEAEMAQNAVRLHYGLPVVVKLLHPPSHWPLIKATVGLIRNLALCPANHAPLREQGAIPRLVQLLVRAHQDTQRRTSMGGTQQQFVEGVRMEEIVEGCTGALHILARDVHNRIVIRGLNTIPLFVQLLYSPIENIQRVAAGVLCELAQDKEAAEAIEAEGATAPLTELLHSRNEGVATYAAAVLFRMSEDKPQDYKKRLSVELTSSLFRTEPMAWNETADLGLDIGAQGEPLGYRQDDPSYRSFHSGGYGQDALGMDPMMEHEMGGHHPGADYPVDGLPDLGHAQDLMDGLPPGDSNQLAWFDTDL
UniProt P11142: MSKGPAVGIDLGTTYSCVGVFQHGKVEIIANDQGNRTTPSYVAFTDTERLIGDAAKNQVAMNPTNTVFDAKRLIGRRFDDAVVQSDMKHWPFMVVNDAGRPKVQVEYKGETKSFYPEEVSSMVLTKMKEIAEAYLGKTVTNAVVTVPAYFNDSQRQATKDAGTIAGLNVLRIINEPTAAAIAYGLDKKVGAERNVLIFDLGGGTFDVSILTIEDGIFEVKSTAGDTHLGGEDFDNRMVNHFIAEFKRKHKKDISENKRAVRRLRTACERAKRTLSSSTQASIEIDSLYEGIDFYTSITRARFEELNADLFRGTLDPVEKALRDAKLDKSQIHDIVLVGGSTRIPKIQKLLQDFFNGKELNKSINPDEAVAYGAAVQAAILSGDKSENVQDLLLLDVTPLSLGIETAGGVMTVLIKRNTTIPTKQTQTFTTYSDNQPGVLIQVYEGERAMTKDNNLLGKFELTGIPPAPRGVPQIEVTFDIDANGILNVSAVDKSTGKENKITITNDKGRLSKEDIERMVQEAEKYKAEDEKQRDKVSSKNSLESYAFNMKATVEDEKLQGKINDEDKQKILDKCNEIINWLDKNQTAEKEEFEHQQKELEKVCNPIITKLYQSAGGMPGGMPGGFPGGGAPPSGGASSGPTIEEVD

These are yes or no findings as the source states them, for the method shown. Binding seen in cells or lysates may run through a third protein. Some entries that bind do so weakly or less than the wild type.

In assay [1] the target is caveolin-1 (CAV1), endogenous in RKO cells (human (endogenous in RKO)) (UniProt Q03135). The assay can be described thus: co-IP; CAV1 and β-catenin in RKO cells stably expressing shScramble or shHSPA8; IP lysis buffer, antibody overnight at 4 °C, protein A+G agarose, immunoblot.
The target of assay [2] is CAV1 in HEK293T cells (co-IP of Figure 5A) (human) (UniProt Q03135). In words: co-IP; CAV1 with LAMP2A, β-catenin and LC3 in HEK293T cells; IP lysis buffer, antibody overnight at 4 °C, protein A+G agarose, immunoblot. In general terms: Immunoblotting shows a protein as a band on a membrane.
Assay [3] addresses HA-CAV1 S168D (human) (UniProt Q03135). The assay can be described thus: co-IP; HSPA8 and HA-CAV1 S168A or S168D in HEK293T cells; IP lysis buffer, antibody overnight at 4 °C, protein A+G agarose, immunoblot.
Assay [4] concerns the target caveolin-1 (CAV1), endogenous in RKO cells (human (endogenous in RKO)) (UniProt Q03135). In words: co-IP; endogenous proteins in RKO cells; IP lysis buffer (137 mM NaCl, 20 mM Tris, 10% glycerol, 2 mM EDTA, 1% NP-40, pH 8), antibody overnight at 4 °C, protein A+G agarose 4 h, immunoblot.
Assay [5] concerns the target HA-CAV1 full length (WT) (human) (UniProt Q03135). The assay can be described thus: co-IP; myc-HSPA8 and HA-CAV1 (WT or Del) in HEK293T cells; IP lysis buffer (137 mM NaCl, 20 mM Tris, 10% glycerol, 2 mM EDTA, 1% NP-40, pH 8), antibody overnight at 4 °C, protein A+G agarose 4 h, immunoblot.
Assay [6] addresses HA-CAV1 with KIFSN motif deletion (Del) (human) (UniProt Q03135). Described as above.

In the case of “β-catenin in RKO cells (from UniProt P35222 1-781)”, in assay [1], the binding result is given as “binds”.

As to “β-catenin in HEK293T cells (from UniProt P35222 1-781)”, in assay [2], the binding entry was “binds”.

Consider “HSPA8 in HEK293T cells (co-IP of Figure 4J) (from UniProt P11142 1-646)”, for which the binding result in assay [3] is on record as “binds”.

For the substance “heat shock 70 kDa protein 8 (HSPA8), endogenous in RKO cells (from UniProt P11142 1-646)”, the binding result in assay [4] was “binds”.

In the case of myc-HSPA8 (from UniProt P11142 1-646), the binding result is “binds” in assay [5] and “no binding” in assay [6].
